We go through two molecules from patent publication US12290509B2, “Treatment of hepatitis delta virus infection” (priority 2014, dated 2025).

Values joined by “and” are separate entries in the source; they are usually repeats but may differ in a detail not shown here. Equal entries are not always repeated.

Assay [1] has as its system hepatitis delta virus (HDV). To be noted: human, in vivo.
In the next assay the test system is hepatitis B virus (HBV). Kind of assay: HBV DNA viral load and HBsAg in patients infected with HBV and HDV. To be noted: PEG-IFN-λ 120 or 180 μg per week s.c., 48 weeks, prophetic protocol.

In the case of `NC(=O)N1CCC(CC(=O)N2CCC([C@H]3c4ncc(Br)cc4CCc4cc(Cl)cc(Br)c43)CC2)CC1` [lonafarnib], in assay [1], the “HDV RNA level increase after discontinuation of lonafarnib (viral rebound)” value is 1.7 log HDV RNA copies/mL and 1.4 log HDV RNA copies/mL; the “change in viral loads at 56 and 84 days versus levels at 28 days” value was “plateaued or increased”; the “mean change in HDV RNA levels from baseline to nadir” value is −0.74 log HDV RNA copies/mL; the “response to therapy (>=0.5 log HDV RNA copies/mL decline baseline to nadir)” value is listed as “responsive to therapy”. Moreover, the “time from flare to ALT normalization and HDV RNA negativity” value in assay [1] was 12-24 weeks.

B1: interferon lambda monotherapy: pegylated interferon lambda-1a, subcutaneous, prophetic Phase 2 protocol (protein, UniProt Q8IU54 20-200, looked up)
Interferon lambda-1: GPVPTSKPTTTGKGCHIGRFKSLSPQELASFKKARDALEESLKLKNWSCSSPVFPGNWDLRLLQVRERPVALEAELALTLKVLEAAAGPALEDVLDQPLHTLHHILSQLQACIQPQPTAGPRPRGRLHHWLHRLQEAPKKESAGCLEASVTFNLFRLLTRDLKYVADGNLCLRTSTHPEST
modifications: PEG
notes: pegylated interferon lambda-1a, subcutaneous, prophetic Phase 2 protocol
With B1, in assay [1] (sc), the “HDV viral load at end-of-treatment compared to baseline” value was “reduction in HDV viral load”. Further, in the assay on hepatitis B virus (HBV), the “HBV viral load at end-of-treatment compared to baseline” value is recorded as “reduction in HBV viral load” and the “level of HBsAg at end-of-treatment compared to baseline” value was “reduction in the level of HBsAg”.
